The target of the experiment is N-terminally 3Flag-tagged Cdc20 (the Cdc20 of recombinant MCC) (human, UniProt Q12834). Kind of experiment: pull-down.
Sequence of UniProt Q12834 (Q12834 whole entry): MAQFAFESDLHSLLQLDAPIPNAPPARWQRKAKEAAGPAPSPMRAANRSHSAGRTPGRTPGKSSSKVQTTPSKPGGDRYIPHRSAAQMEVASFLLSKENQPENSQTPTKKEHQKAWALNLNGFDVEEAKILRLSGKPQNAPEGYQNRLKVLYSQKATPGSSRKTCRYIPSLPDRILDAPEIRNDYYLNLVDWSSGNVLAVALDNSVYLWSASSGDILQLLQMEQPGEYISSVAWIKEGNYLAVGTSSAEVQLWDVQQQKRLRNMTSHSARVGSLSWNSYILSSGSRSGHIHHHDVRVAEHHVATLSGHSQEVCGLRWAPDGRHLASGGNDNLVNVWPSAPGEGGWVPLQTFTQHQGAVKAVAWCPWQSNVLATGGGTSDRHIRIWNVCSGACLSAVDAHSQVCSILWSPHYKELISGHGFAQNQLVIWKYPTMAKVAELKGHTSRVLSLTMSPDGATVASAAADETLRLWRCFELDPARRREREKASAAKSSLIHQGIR

B1: Mad2 (of recombinant MCC) (natural protein)
chain: not shown
For the molecule B1, the binding result was “binds”.
